Test results: the RNAGym collection of RNA variant scans (doi:10.1073/pnas.2313332121)
Variants at the floor of the assay are shown more often than the library holds them.

B1: TPR 5TU (parent)
chain: GGAUCUUCUCGAUCUAACAAAAAAGACAAAUCUGCCACAAAGCUUGAGAGCAUCUUCGGAUGCAGAGGCGGCAGCCUUCGGUGGCGCGAUAGCGCCAACGUUCUCAACUAUGACACGCAAAACGCGUGCUCCGUUGAAUGGAGUUUAUCAUG

Variants of: B1
Test: polymerase ribozyme fitness, log enrichment relative to wild type (log ratio); higher = more active; in vitro selection for triplet polymerase activity
How it was run: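 Fitness is a logarithmic measure of how a genotype enriched relative to the wild type, with replicate averages weighted by inverse variance. The logarithm uses base 2, and enrichment came from Illumina sequencing of input and output libraries. Those libraries were PCR-built, transcribed mutants of each subunit of a heterodimeric triplet polymerase ribozyme, passed through one triplicate in vitro selection round that included frozen incubation at −7 °C, gel excision of extended constructs and streptavidin-bead capture. Genotypes were kept only if they had ≥10 input reads and ≥1 read per output.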
In the case of GGAUCUUCUCGAUCUAACAAAAAAGACAAAUCUGCCACAAAGCUUGAGAGCAUCUUCGGAUGCAGAGGCGGCAGCCUUCGGUGGCGCGAUAGCGCUAUGGUUCUCAACUAUGACAGGCAAAACGCGUGCUCCGUUGAAUGGAGUUUAUCUUG, the “polymerase ribozyme fitness (log ratio)” value is reported as at most -4.2. With GGAUCUUCUCGAUCUAACAAAAAAGACAAAUCUGCCACAAAGCUUGAGAGCAUCUUCGGAUGCAGAGGCGGCAGCCUUCGGUGGCGCGAUAGCGCUUACGUUCUCAACUAUGACACGCAAAACGCGUGCUCCGUUGAAUGGAGUUUAUCAUG the “polymerase ribozyme fitness (log ratio)” value was -0.832. In the case of GGAUCUUCUCGAUCUAACAAAAAAGACAAAUCUGCCACAAAGCUUGAGAGCAUCUUCGGAUGCAGAGGCGGCAGCCUUCGGUGGCGCGAUAGCGCUAAAGUUCUCAACUAUGACACGCAAAACGCGUGCUCCCUUGAAUGAAGUUUAUCAUG, the “polymerase ribozyme fitness (log ratio)” value is reported as at most -4.2. For GGAUCUUCUCGAUCUAACAAAAAAGACAAAUCUGCCACAAAGCUUGAGAGCAUCUUCGGAUGCAGAGGCGGCAGCCUUCGGUGGCGCGAUAGCGCCGACGUUCUCAACUAUGACACGCAAAACGCGUGCUCCAUUGAAUGGAGUUUAUCAUG, the “polymerase ribozyme fitness (log ratio)” value was -3.61. In the case of GGAUCUUCUCGAUCUAACAAAAAAGACAAAUCUGCCACAAAGCUUGAGAGCAUCUUCGGAUGCAGAGGCGGCAGCCUUCGGUGGCGCGAUAGCGCCAUCGUUCUCAACUAUGACACGCAAAACGCGUGCUCCGUUGAAUGGUUUUUAUCUUG, the “polymerase ribozyme fitness (log ratio)” value is reported as at most -4.2. For GGAUCUUCUCGAUCUAACAAAAAAGACAAAUCUGCCACAAAGCUUGAGAGCAUCUUCGGAUGCAGAGGCGGCAGCCUUCGGUGGCGCGAUAGCGCUAACGUUCUCAAAUAUGACGCGCAAAACGCGUGCUCCGUUGAAUGGAGUUUAUCAUG, the “polymerase ribozyme fitness (log ratio)” value was at most -4.2. For GGAUCUUCUCGAUCUAACAAAAAAGACAAAUCUGCCACAAAGCUUGAGAGCAUCUUCGGAUGCAGAGGCGGCAGCCUUCGGUGGCGCGAUAGCGCUAACGUUCUCAACUAUGACACGCAAAACGCGUGCUCAGCUGAAUGGCGUUUAUCUUG, the “polymerase ribozyme fitness (log ratio)” value was at most -4.2. In the case of GGAUCUUCUCGAUCUAACAAAAAAGACAAAUCUGCCACAAAGCUUGAGAGCAUCUUCGGAUGCAGAGGCGGCAGCCUUCGGUGGCGCGAUAGCGCUAACGUUCGCAACUAUGACACGCAAAACGCGUGCUCCGUUGAAUGGAGUUUAUCAUG, the “polymerase ribozyme fitness (log ratio)” value is reported as -1.59. For GGAUCUUCUCGAUCUAACAAAAAAGACAAAUCUGCCACAAAGCUUGAGAGCAUCUUCGGAUGCAGAGGCGGCAGCCUUCGGUGGCGCGAUAGCGCUAACGUUCUCAACUAUGACACGCAAUACGCGUGCUCCGUUGAAAGGAGUUUAUCAUG, the “polymerase ribozyme fitness (log ratio)” value was at most -4.2. For GGAUCUUCUCGAUCUAACAAAAAAGACAAAUCUGCCACAAAGCUUGAGAGCAUCUUCGGAUGCAGAGGCGGCAGCCUUCGGUGGCGCGAUAGCGCUAACGUUCUCAACUAUGACACGCAAAACGCGUGCUCCGUUGUAUGGAGUUGAUCAUG, the “polymerase ribozyme fitness (log ratio)” value was at most -4.2. In the case of GGAUCUUCUCGAUCUAACAAAAAAGACAAAUCUGCCACAAAGCUUGAGAGCAUCUUCGGAUGCAGAGGCGGCAGCCUUCGGUGGCGCGAUAGCGCUAACGUUCUCAACUAUGACACGCAAAACGCGUGCUCCGUUGAAUGGAGUUUUUCAUG, the “polymerase ribozyme fitness (log ratio)” value is reported as 1.21. For GGAUCUUCUCGAUCUAACAAAAAAGACAAAUCUGCCACAAAGCUUGAGAGCAUCUUCGGAUGCAGAGGCGGCAGCCUUCGGUGGCGCGAUAGCGCUAACGUUCUCAACUAUGACACGCAAAACGCGUGCUCCGUUGAAUGGAGUUUGUCAUG, the “polymerase ribozyme fitness (log ratio)” value was -1.18. With GGAUCUUCUCGAUCUAACAAAAAAGACAAAUCUGCCACAAAGCUUGAGAGCAUCUUCGGAUGCAGAGGCGGCAGCCUUCGGUGGCGCGAUAGCGCGAACGUUCUCAACUAUGACACGCAAAACGCGUGCUCCGUUGAAUGGAGUUUAACAUG the “polymerase ribozyme fitness (log ratio)” value was -3.53. With GGAUCUUCUCGAUCUAACAAAAAAGACAAAUCUGCCACAAAGCUUGAGAGCAUCUUCGGAUGCAGAGGCGGCAGCCUUCGGUGGCGCGAUAGCGCUAACGUUCUCAACUAUGACACGCAAAAUGCGUGCUCCGUUUAAUGGAGUUUAUCAUG the “polymerase ribozyme fitness (log ratio)” value was -2.2. In the case of GGAUCUUCUCGAUCUAACAAAAAAGACAAAUCUGCCACAAAGCUUGAGAGCAUCUUCGGAUGCAGAGGCGGCAGCCUUCGGUGGCGCGAUAGCGCUAACGUUCUCAACUAUGACACGCAAACCGCGUGCUCCGUUGAAUGGAGUUUAUCAUG, the “polymerase ribozyme fitness (log ratio)” value is reported as -0.314. With GGAUCUUCUCGAUCUAACAAAAAAGACAAAUCUGCCACAAAGCUUGAGAGCAUCUUCGGAUGCAGAGGCGGCAGCCUUCGGUGGCGCGAUAGCGCCGACGUGCUCAACUAUGACACGCAAAACGCGUGCUCCGUUGAAUGGAGUUUAUCAUG the “polymerase ribozyme fitness (log ratio)” value was at most -4.2. For GGAUCUUCUCGAUCUAACAAAAAAGACAAAUCUGCCACAAAGCUUGAGAGCAUCUUCGGAUGCAGAGGCGGCAGCCUUCGGUGGCGCGAUAGCGCCUAGGUUCUCAAGUAUGACACGCAAAACGCGUGCUCCGUUGAAUGGAGUUUAUCAUG, the “polymerase ribozyme fitness (log ratio)” value was at most -4.2. For GGAUCUUCUCGAUCUAACAAAAAAGACAAAUCUGCCACAAAGCUUGAGAGCAUCUUCGGAUGCAGAGGCGGCAGCCUUCGGUGGCGCGAUAGCGCUAACGUUCUCAACUAUGACACGCAAAACGCGUUCUCCGUUGAAUGGAGUUCAUCAUG, the “polymerase ribozyme fitness (log ratio)” value was -3.35. With GGAUCUUCUCGAUCUAACAAAAAAGACAAAUCUGCCACAAAGCUUGAGAGCAUCUUCGGAUGCAGAGGCGGCAGCCUUCGGUGGCGCGAUAGCGCCAGCGUUCUCAACUAGGACACGCAAAACGCGUGCUCCCUUCAAUGGAGUUUAUCAUG the “polymerase ribozyme fitness (log ratio)” value was at most -4.2. For GGAUCUUCUCGAUCUAACAAAAAAGACAAAUCUGCCACAAAGCUUGAGAGCAUCUUCGGAUGCAGAGGCGGCAGCCUUCGGUGGCGCGAUAGCGCCUACGUUCUCAACUAUGACACGCAAAACGCGUGCUCAGUUGAAUGGAGUUUAUCAUG, the “polymerase ribozyme fitness (log ratio)” value was -2.65. For GGAUCUUCUCGAUCUAACAAAAAAGACAAAUCUGCCACAAAGCUUGAGAGCAUCUUCGGAUGCAGAGGCGGCAGCCUUCGGUGGCGCGAUAGCGCUAACGUUCUCAACUUUGACACGCAAAACUGGUGCUCCGUUGAAUGGAGAUUAUCAUG, the “polymerase ribozyme fitness (log ratio)” value was at most -4.2. For GGAUCUUCUCGAUCUAACAAAAAAGACAAAUCUGCCACAAAGCUUGAGAGCAUCUUCGGAUGCAGAGGCGGCAGCCUUCGGUGGCGCGAUAGCGCUAACGUUCUCAACUCUGACACGCAUAACGCGUGCUCCGUUGAAUGGAGUUUAUCAUG, the “polymerase ribozyme fitness (log ratio)” value was at most -4.2. With GGAUCUUCUCGAUCUAACAAAAAAGACAAAUCUGCCACAAAGCUUGAGAGCAUCUUCGGAUGCAGAGGCGGCAGCCUUCGGUGGCGCGAUAGCGCCCACGUUCUCAACUAUGACACGCGAAACGCGUGCUCCGUUGAAUGGAGUUUAUCAUG the “polymerase ribozyme fitness (log ratio)” value was 0.72. For GGAUCUUCUCGAUCUAACAAAAAAGACAAAUCUGCCACAAAGCUUGAGAGCAUCUUCGGAUGCAGAGGCGGCAGCCUUCGGUGGCGCGAUAGCGCUAACGUUGUCAAAUAUGACACGCAAAACGCGUGCUCCGUUGAAUGGAGUUUAUCAUG, the “polymerase ribozyme fitness (log ratio)” value was at most -4.2. With GGAUCUUCUCGAUCUAACAAAAAAGACAAAUCUGCCACAAAGCUUGAGAGCAUCUUCGGAUGCAGAGGCGGCAGCCUUCGGUGGCGCGAUAGCGCGAACGUUCUCAACUAUGACAGGCAAAACGCGUGCUCCGUUGAAUGGAGUUUAUCAUG the “polymerase ribozyme fitness (log ratio)” value was 0.127. In the case of GGAUCUUCUCGAUCUAACAAAAAAGACAAAUCUGCCACAAAGCUUGAGAGCAUCUUCGGAUGCAGAGGCGGCAGCCUUCGGUGGCGCGAUAGCGCCAUCGUUCUCAUCUAUGACACGCAAAACGAGUGCUCCGUUGAAUGGAGUUUGUCAUG, the “polymerase ribozyme fitness (log ratio)” value is reported as at most -4.2. With GGAUCUUCUCGAUCUAACAAAAAAGACAAAUCUGCCACAAAGCUUGAGAGCAUCUUCGGAUGCAGAGGCGGCAGCCUUCGGUGGCGCGAUAGCGCUAACGUUCUCAACUAUGACACGCAAAACACGUGCUCCGUUGAAUGGAGUUUAUCAUG the “polymerase ribozyme fitness (log ratio)” value was -0.382. For GGAUCUUCUCGAUCUAACAAAAAAGACAAAUCUGCCACAAAGCUUGAGAGCAUCUUCGGAUGCAGAGGCGGCAGCCUUCGGUGGCGCGAUAGCGCUAACGUUCUCAACUAUGACACGCAAAACUCGUGCUCCGUUGAAUGGAGUUUAUCAUG, the “polymerase ribozyme fitness (log ratio)” value was -0.372. For GGAUCUUCUCGAUCUAACAAAAAAGACAAAUCUGCCACAAAGCUUGAGAGCAUCUUCGGAUGCAGAGGCGGCAGCCUUCGGUGGCGCGAUAGCGCCAGCGUUCUCAACUAUGACACGCAAAACGCGCGCUCCGUUGAAUGGAGUUUAUCAUG, the “polymerase ribozyme fitness (log ratio)” value was -3.01. For GGAUCUUCUCGAUCUAACAAAAAAGACAAAUCUGCCACAAAGCUUGAGAGCAUCUUCGGAUGCAGAGGCGGCAGCCUUCGGUGGCGCGAUAGCGCCUACGUUCGCAACUAUGACACGCAAAACGCGUGCUCCGUUGAAUGGAGUUUAUCAUG, the “polymerase ribozyme fitness (log ratio)” value was -0.956. With GGAUCUUCUCGAUCUAACAAAAAAGACAAAUCUGCCACAAAGCUUGAGAGCAUCUUCGGAUGCAGAGGCGGCAGCCUUCGGUGGCGCGAUAGCGCGAACGUUCUCAACUAUGACACGCAAAACGCGUGCUCCGUUGAAUGGAGUUUAUCAAG the “polymerase ribozyme fitness (log ratio)” value was at most -4.2. With GGAUCUUCUCGAUCUAACAAAAAAGACAAAUCUGCCACAAAGCUUGAGAGCAUCUUCGGAUGCAGAGGCGGCAGCCUUCGGUGGCGCGAUAGCGCGAACGUUCUCAACUAUGACACGCAAAACGCGUGCUCCGUUGAAUGAAGUUUAUCAUG the “polymerase ribozyme fitness (log ratio)” value was -0.288. In the case of GGAUCUUCUCGAUCUAACAAAAAAGACAAAUCUGCCACAAAGCUUGAGAGCAUCUUCGGAUGCAGAGGCGGCAGCCUUCGGUGGCGCGAUAGCGCCAUCGUUCUCAACUAUGACACGCAAAACGCGUGCUCCGUUGAAUGGAGUUUAUCCUG, the “polymerase ribozyme fitness (log ratio)” value is reported as -2.82. In the case of GGAUCUUCUCGAUCUAACAAAAAAGACAAAUCUGCCACAAAGCUUGAGAGCAUCUUCGGAUGCAGAGGCGGCAGCCUUCGGUGGCGCGAUAGCGCGAACGUUCUCAACUAUGACACGCAAAACGCGUGCUCCGUUGAAGUGAGUUUAUAAUG, the “polymerase ribozyme fitness (log ratio)” value is reported as at most -4.2. With GGAUCUUCUCGAUCUAACAAAAAAGACAAAUCUGCCACAAAGCUUGAGAGCAUCUUCGGAUGCAGAGGCGGCAGCCUUCGGUGGCGCGAUAGCGCUAGCGUUCUCAACUAUGACACGCAAAACGCGUGCUCCGUUGAAUGGAGUUUAUCAUG the “polymerase ribozyme fitness (log ratio)” value was -1.3. For GGAUCUUCUCGAUCUAACAAAAAAGACAAAUCUGCCACAAAGCUUGAGAGCAUCUUCGGAUGCAGAGGCGGCAGCCUUCGGUGGCGCGAUAGCGCUAACGUUCUCAACUAUGACACGCAAAACGCGUGCACCGUUGAAUGGAGUUUACCAUG, the “polymerase ribozyme fitness (log ratio)” value was at most -4.2. In the case of GGAUCUUCUCGAUCUAACAAAAAAGACAAAUCUGCCACAAAGCUUGAGAGCAUCUUCGGAUGCAGAGGCGGCAGCCUUCGGUGGCGCGAUAGCGCUAACGUUCUCAACUAUGACACGCAAAACGUGUGCUCCGUUGAAUGGAGUUUAUCAUG, the “polymerase ribozyme fitness (log ratio)” value is reported as -0.382. With GGAUCUUCUCGAUCUAACAAAAAAGACAAAUCUGCCACAAAGCUUGAGAGCAUCUUCGGAUGCAGAGGCGGCAGCCUUCGGUGGCGCGAUAGCGCUAACGUUCUCAACUAUGACACGCAAAACGAGUGCUCCGUUGAAUGGAGUUUAUCAUG the “polymerase ribozyme fitness (log ratio)” value was -0.0844.
